Screen size: about 310,000 compounds; about 14,000 (4.5%) showed an effect of 50% or more. Effects have a minus sign here. Some of the results follow.
These compounds were tested against human ether-à-go-go-related gene (hERG) potassium channel (human, UniProt Q12809) (assay: primary screen, population patch clamp on CHO cells stably expressing hERG).
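Also: peak tail current of the secondary pulse compared with the same well before compound.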

Sequence of human ether-à-go-go-related gene (hERG) potassium channel (Q12809 whole entry, looked up): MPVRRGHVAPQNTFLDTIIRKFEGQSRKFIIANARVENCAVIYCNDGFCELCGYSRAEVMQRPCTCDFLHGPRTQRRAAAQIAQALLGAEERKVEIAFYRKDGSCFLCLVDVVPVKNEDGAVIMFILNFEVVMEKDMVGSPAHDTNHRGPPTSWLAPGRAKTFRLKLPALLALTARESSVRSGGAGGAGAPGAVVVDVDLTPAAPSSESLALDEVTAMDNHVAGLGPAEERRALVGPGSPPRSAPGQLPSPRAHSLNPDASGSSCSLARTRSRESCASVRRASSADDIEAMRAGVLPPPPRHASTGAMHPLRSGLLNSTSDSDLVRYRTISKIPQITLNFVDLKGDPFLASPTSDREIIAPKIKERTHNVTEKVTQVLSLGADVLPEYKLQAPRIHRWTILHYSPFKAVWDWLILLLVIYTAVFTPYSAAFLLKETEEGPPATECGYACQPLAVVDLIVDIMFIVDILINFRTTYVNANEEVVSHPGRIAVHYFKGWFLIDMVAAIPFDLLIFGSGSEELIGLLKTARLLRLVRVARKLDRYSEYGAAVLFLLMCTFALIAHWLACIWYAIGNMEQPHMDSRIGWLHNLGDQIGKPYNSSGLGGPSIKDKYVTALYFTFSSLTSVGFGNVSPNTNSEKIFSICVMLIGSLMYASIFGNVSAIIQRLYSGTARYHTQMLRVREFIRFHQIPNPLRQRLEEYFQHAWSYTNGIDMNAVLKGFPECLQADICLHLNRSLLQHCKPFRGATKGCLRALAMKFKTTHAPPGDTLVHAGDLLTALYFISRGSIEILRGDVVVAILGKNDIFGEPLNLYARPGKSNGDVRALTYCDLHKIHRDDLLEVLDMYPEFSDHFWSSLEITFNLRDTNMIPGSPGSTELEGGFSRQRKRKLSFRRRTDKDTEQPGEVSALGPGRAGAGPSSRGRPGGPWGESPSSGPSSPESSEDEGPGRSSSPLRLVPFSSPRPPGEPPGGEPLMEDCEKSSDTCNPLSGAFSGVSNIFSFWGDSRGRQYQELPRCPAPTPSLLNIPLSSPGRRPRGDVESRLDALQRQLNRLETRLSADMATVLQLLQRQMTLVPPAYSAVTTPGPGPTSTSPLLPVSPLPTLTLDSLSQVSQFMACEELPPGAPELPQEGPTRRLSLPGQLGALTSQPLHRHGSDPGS

| Structure (SMILES) | hERG current change (%, negative = inhibition) at 10uM |
| --- | --- |
| C/C(=N\Nc1ccc([N+](=O)[O-])cc1[N+](=O)[O-])C(C)(C)C(C(=O)O)C(=O)O | 5.86% |
| O=C(Nc1cccc(Cl)c1Cl)C1CCCO1 (stereo not shown) | 18.5% |
| Cc1cccc(OCC(=O)OC(C)C(=O)Nc2ccc(Cl)cn2)c1 (stereo not shown) | -1.87% |
| NC(=O)c1nsc(C(=O)N(c2cccc(F)c2)C(C(=O)NCC2CCCO2)c2ccc3ncccc3c2)c1N (stereo not shown) | -23.3% |
| CC(Sc1nncn1C)C(=O)Nc1cc(C(F)(F)F)ccc1N1CCOCC1 (stereo not shown) | -15.1% |
| Cc1ccc2c(c1)C1C3CCC(C3)C1S(=O)N2 (stereo not shown) | 23.1% |
| Cc1ccc(C)c2c1cc(C)c1nnc(SCC(=O)c3cccs3)n12 | -61.5% |
| COC(=O)c1cc(S(=O)(=O)N2CCC(C)CC2)ccc1F | -18% |
| Cc1cc(OCC(=O)NNC(=O)c2cccc(F)c2)ccc1Cl | 7.87% |
| Cc1ccc(-c2nc3sc(C#N)c(N)n3c(=O)c2C#N)cc1 | 29.2% |
| COC1=C/C(=C/c2c(N)n3c(nc2=O)sc2cc(S(C)(=O)=O)ccc23)C=CC1=O | 28.2% |
| Cc1ccccc1CN1CCC(N2CCC(C(=O)NCC3CCCO3)CC2)CC1 (stereo not shown) | -1.07% |
| CCOCCOC(=O)NCCCCCCNC(=O)OCCOCC | 13.2% |
| C=CCOc1ccc(/C=C/C(=O)OCC(=O)NCC2CCCCC2)cc1 | -5.74% |
| CCN(c1ccc(OC)cc1)S(=O)(=O)c1nnc(NC(=O)c2ccccc2Cl)s1 | 15.5% |
| Cc1ccc(NC(=O)CN2C(=O)CCS(=O)(=O)c3ccccc32)cc1Cl | 18.6% |
| CCn1c(SCC(=O)c2ccc(NC(C)=O)c(OC)c2)nnc1-c1ccc(NS(C)(=O)=O)cc1 | 15.8% |
| CC(=O)c1ccc(NC(=O)C2C3C=CC(C3=C(c3ccccc3)c3ccccc3)C2C(=O)O)cc1 (stereo not shown) | 2.53% |
| CCOP(=O)(OCC)c1ccc(O)cc1 | 13.3% |
| CC1CCC(NC(=O)c2nn(C)c3c2CS(=O)(=O)c2ccccc2-3)CC1 (stereo not shown) | -21.1% |
| COc1cccc(NC(=O)C2=COCCO2)c1 | 3.72% |
| COc1ccccc1N1C(=O)c2ccccc2NC1c1ccncc1 (stereo not shown) | -13% |
| CC1CCCC(C)N1C(=O)COC(=O)c1cc(Br)ccc1Cl (stereo not shown) | 14.8% |
| c1ccc(CSc2nc3ncncc3[nH]2)cc1 | 2.94% |
| O=C(CNC(=O)c1ccc(S(=O)(=O)N2CCCC2)cc1)N/N=C/c1ccc(Cl)cc1Cl | -3.34% |
| Cc1ccc2c(c1)cc(CN(Cc1cccs1)C(=O)c1ccco1)c1nnnn12 | -16.8% |
| COc1ccc(-c2cc(C(F)(F)F)nc(N3CCOCC3)n2)cc1OC | 6.92% |
| CCN1CCN(Cc2ccc(NC(=O)Nc3ccc(OC)cc3)cc2)CC1 | -7.9% |

| Structure (SMILES) | hERG current change (%, negative = inhibition) at 10uM |
| --- | --- |
| O=C(Nc1cc(C(F)(F)F)ccc1N1CCOCC1)c1cncc(Br)c1 | -18.4% |
| CCOc1ccccc1N1CCN(C(=O)C(Sc2ccccc2)c2ccccc2)CC1 (stereo not shown) | 0.257% |
| O=C(O)CC/C(=N\NC(=O)c1ccccc1)c1cccs1 | 8.65% |
| COc1ccc(-n2c(CCc3ccccc3)nnc2SCC(=O)c2ccccc2)cc1 | -11.3% |
| O=C(Nc1ccc(Cl)cc1)N1CCSc2ccccc21 | -4.16% |
| Cc1cc(NC(=O)CCC(=O)N(CC(=O)NCC2CCCO2)c2ccc(C)c(C)c2)no1 (stereo not shown) | 8.68% |
| CCC(Sc1nc2cc(OC)c(OC)cc2c(=O)n1Cc1ccco1)C(=O)NCCOC (stereo not shown) | -28.2% |
| Cc1cc(C)[n+](-c2ccc(F)cc2)c2[nH]c(=O)[nH]c(=O)c12.[I-] | -10.9% |
| COc1ccc(CC(=O)Nc2ccc(-c3noc(-c4cc(OC)c(OC)c(OC)c4)n3)cc2)cc1 | 0.417% |
| COc1ccc(Cc2nnc(SCC(=O)NC3CCCC3)o2)cc1 | -9.12% |
| CC(=O)Nc1ccc(NC(=O)c2c(C)nn(Cc3ccccc3Cl)c2C)cc1 | -8.41% |
| O=C(OCc1ccccc1)c1cc(S(=O)(=O)N2CCCCC2)ccc1N1CCOCC1 | -27.3% |
| CS(=O)(=O)Nc1ccc(C2=NN(C(=O)c3ccco3)C(c3ccc(F)cc3)C2)cc1 (stereo not shown) | -81.1% |
| COc1cccc(/C=N/NC(=O)C(=O)NCc2cccnc2)c1OC | 52.7% |
| Cn1c(=O)c2sccc2n(Cc2ccccc2)c1=O | -3.99% |
| O=C(CSC1=Nc2ccccc2C2=NC(CC(=O)NCc3ccco3)C(=O)N12)NCC1CCCO1 (stereo not shown) | 7.92% |
| CCOC(=O)c1c(N)sn(-c2ccccc2)c1=S | 6.15% |
| COc1ccc(OC)c(-n2c(-c3ccc(C)cc3)n[nH]c2=S)c1 | 0.818% |
| O=C(Nc1nc2ccc([N+](=O)[O-])cc2s1)C1CCCO1 (stereo not shown) | -14.8% |
| CC(C)(C)C1CCC(C(=O)OCC(=O)N2CCN(C(=O)c3ccco3)CC2)CC1 (stereo not shown) | -32.4% |
| CC(=O)Nc1cc(-c2nc3ccccc3o2)ccc1Cl | 11.6% |
| COc1ccc(Cl)c(N2CCN(CCCNC(=O)Nc3ccc(C)cc3)CC2)c1 | -72.4% |
| Nc1ccccc1C(=O)Nc1cccc2ccccc12 | 7.48% |
| COc1ccc(N(CC(=O)NC2CCCCC2)C(=O)CCC(=O)Nc2nc(C)cs2)cc1OC | 6.12% |
| COC(=O)c1ccc(C)c(NS(=O)(=O)c2ccc(NC(C)=O)cc2)c1 | -17.8% |
| O=C(NCc1ccccn1)c1ccc(-c2ccccc2)cc1 | 7.59% |
| CC(NC(=O)c1ccc(F)cc1)c1ccc(F)cc1 (stereo not shown) | -31.1% |

— PMC4336329 (PLoS ONE, 2015)
